Reference: PubChem BioAssay AID2147 (National Center for Advancing Translational Sciences (NCATS), 2009)
The campaign covered roughly 230,000 compounds. About 3,600 (1.6%) were called active. The inconclusive results got no clear call from the source; some entries with a clear call stand among them for comparison. Calls follow the shape of the dose curve; as a rule, active = well fitted inhibition curve with a large enough effect (not every such curve was filed as active); inconclusive = small, poorly fitted or top-dose-only effect, or another doubt; inactive = no such curve, though single readings can be large or run the other way. A potency beside an inconclusive call is a rough fit, not a confirmed value.

These compounds were tested against Lysine-specific demethylase 4E (Homo sapiens) (UniProt B2RXH2) (assay: qHTS Assay for Inhibitors of Human Jumonji Domain Containing 2E (JMJD2E)). Conditions: JMJD2E catalytic domain, FDH-coupled NADH fluorescence (FDH is formaldehyde dehydrogenase); series mostly up to 57.1 µM; activity change, negative = inhibition: at the top concentration.
Also: nearly all actives have a fitted effect of over 50% in size.
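For activity change, negative = inhibition in this document: 0% = wells with enzyme and -100% = buffer wells without enzyme.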
Potency is read from the fitted curve at half-maximal effect; tags tell the direction and shape of the fitted curve.

Sequence of UniProt B2RXH2 (B2RXH2 whole entry, looked up, the tested form may be a part): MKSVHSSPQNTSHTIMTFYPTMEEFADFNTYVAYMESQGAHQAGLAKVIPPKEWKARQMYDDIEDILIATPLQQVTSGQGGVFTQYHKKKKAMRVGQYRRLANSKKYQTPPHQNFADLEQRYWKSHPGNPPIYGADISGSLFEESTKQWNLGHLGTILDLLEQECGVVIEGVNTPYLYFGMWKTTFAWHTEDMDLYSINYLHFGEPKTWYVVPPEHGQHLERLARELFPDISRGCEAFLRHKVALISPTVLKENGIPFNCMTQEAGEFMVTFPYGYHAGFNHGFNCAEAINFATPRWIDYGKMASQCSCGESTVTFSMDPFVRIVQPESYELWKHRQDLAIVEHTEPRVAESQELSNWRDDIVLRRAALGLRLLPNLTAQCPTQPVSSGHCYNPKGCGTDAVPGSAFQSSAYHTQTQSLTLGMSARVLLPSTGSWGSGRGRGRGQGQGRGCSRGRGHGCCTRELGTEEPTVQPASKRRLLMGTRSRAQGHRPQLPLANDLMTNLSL

Row | Compound | Potency | activity change, negative = inhibition
1 | COc1ccc(C(F)(F)F)cc1N/C=C/c1nnnn1-c1ccc2ccccc2c1 | inconclusive: 35.5 µM [inhibitor, partial curve] | 
2 | CCOC(=O)c1cnc2c(C)cccc2c1Nc1ccc(N2CCOCC2)cc1 |  | inactive: 1.09%
3 | O=C(CCN1C(=O)c2cccc3cccc(c23)C1=O)NCc1ccco1 | inconclusive: 22.4 µM [inhibitor, partial curve] | 
4 | Cc1ccc(-c2ccc3nnc(SCC(=O)NCC4CCCO4)n3n2)cc1 (configuration not stated) | inconclusive: 22.4 µM [inhibitor, partial curve] | 
5 | CN(CCCNC(=O)c1cn(C)c2ccc(S(=O)(=O)N(C)C)cc2c1=O)c1ccccc1 |  | inactive: -10.8%
6 | CCOCCCNC(=O)C(NC(=O)c1ccccc1O)c1ccccc1 (configuration not stated) | inconclusive: 22.4 µM [inhibitor, partial curve] | 
7 | CC1(C)CC(=O)c2cc(OCC(=O)NCCCN3CCN(c4ccccc4F)CC3)ccc2O1 | inconclusive: 35.5 µM [inhibitor, single point] | 
8 | COc1ccc(NC(=O)C2(c3ccc(NC(=O)c4ccc(OC)cc4)cc3)CCCC2)cc1 | inconclusive: 28.2 µM [inhibitor, partial curve] | 
9 | COC(=O)c1sccc1NC(=O)NC1CCCCC1 |  | inactive: -4.7%
10 | Cc1ccccc1-n1cc(-c2ccc(Br)cc2)nc1SCC(N)=O |  | inactive: 4.06%
11 | Cc1cccn2cc(-c3ccc(Cl)cc3)nc12 | inconclusive: 28.2 µM [inhibitor, partial curve] | 
12 | CCOc1ccc(-c2nc(C#N)c(N3CCOCC3)o2)cc1 | inconclusive: 31.6 µM [inhibitor, partial curve] | 
13 | Cc1ccc2cc(CN(Cc3ccco3)C(=O)c3cccs3)c(=O)[nH]c2c1 | inconclusive: 39.8 µM [inhibitor, single point] | 
14 | COc1cc(/C=C(\C#N)C(=O)NCc2ccccc2)ccc1OCc1ccc(C(=O)O)cc1 | inconclusive: 31.6 µM [inhibitor, single point] | 
15 | Cn1cccc1/C=C1\SC(=Nc2ccc(O)cc2)NC1=O |  | inactive: 1.3%
16 | O=C(Nc1ccc(-c2nc3ccccc3o2)cc1)C1CCCO1 (configuration not stated) | inconclusive: 31.6 µM [inhibitor, partial curve] | 
17 | COc1ccccc1NC(=O)c1ccc(-c2ccccc2[N+](=O)[O-])o1 |  | inactive: 8.14%
18 | CCOC(=O)c1[nH]c2ccc(C)cc2c1N | inconclusive: 35.5 µM [inhibitor, partial curve] | 
19 | COC(=O)c1cc(NC(=O)C2C3C=CC(C3)C2C(=O)O)cc(C(=O)OC)c1 (configuration not stated) | inconclusive: 25.1 µM [inhibitor, single point] | 
20 | CCN1CCc2c(C#N)c(NCc3ccccc3)nc(N(CC)CC)c2C1 | inconclusive: 39.8 µM [inhibitor, single point] | 
21 | O=C(c1ccccc1-c1ncc[nH]1)N1CCc2c([nH]c3ccccc23)C1c1ccccn1 (configuration not stated) |  | inactive: -12.5%
22 | Cc1ccc2cc(C(c3nnnn3C3CCCC3)N(Cc3ccco3)Cc3cccs3)c(=O)[nH]c2c1 (configuration not stated) | inconclusive: 31.6 µM [inhibitor, single point] | 
23 | CN(C)CCCNC(=O)/C=C/c1ccc2c(c1)OCO2 | inconclusive: 28.2 µM [inhibitor, partial curve] | 
24 | CCOC(=O)C1(CCOc2ccccc2)CCN(Cc2cccc(-n3cccn3)c2)CC1 | inconclusive: 6.31 µM [inhibitor, single point] | 

Row | Compound | Potency | activity change, negative = inhibition
25 | CC(=O)c1ccc(Oc2cc(C)nc(N3CCOCC3)n2)cc1 |  | inactive: -2.04%
26 | CCCOC(=O)c1cc(-c2ccc(C=O)o2)ccc1Cl |  | inactive: -13.9%
27 | O=C1COc2ccc(C(=O)COc3ccc([N+](=O)[O-])cc3)cc2N1 |  | inactive: -0.572%
28 | COc1ccc(Nc2c3c(c(C#N)c4nc5ccccc5n24)CCC3)cc1 |  | inactive: 3.4%
29 | CCOC(=O)c1sc(=NC(=O)c2ccc(OC)c(OC)c2)n(C)c1C | inconclusive: 20 µM [inhibitor, partial curve] | 
30 | N#CCCCSc1nnnn1-c1cc(C(F)(F)F)cc(C(F)(F)F)c1 | inconclusive: 3.98 µM [inhibitor, single point] | 
31 | CCSc1nc2c(c(=O)[nH]1)C(c1cccs1)C(C(=O)OC)=C(C)N2 (configuration not stated) | inconclusive: 39.8 µM [inhibitor, single point] | 
32 | O=C(CSc1nc2ccccc2nc1SCC(=O)N1CCCCC1)N1CCCCC1 |  | inactive: 1.42%
33 | CCOC(=O)c1ccc(S(=O)(=O)NNC(=O)COc2ccccc2C)cc1 | inconclusive: 39.8 µM [inhibitor, single point] | 
34 | CCCn1c(-c2cccs2)nc2ccccc21 | inconclusive: 31.6 µM [inhibitor, partial curve] | 
35 | COc1cccc(/C=N/Nc2ncc(C(F)(F)F)cc2Cl)c1O | inconclusive: 39.8 µM [inhibitor, single point] | 
36 | COCC(C)NCc1ccccc1C (configuration not stated) | inconclusive: 39.8 µM [inhibitor, single point] | 
37 | Cc1ccccc1Nc1nnc(SCc2cc(=O)n3ccsc3n2)s1 | inconclusive: 39.8 µM [inhibitor, single point] | 
38 | Cc1ccc(S(=O)(=O)/N=C(\N)Nc2nc(C)c3cc(C)ccc3n2)cc1 | inconclusive: 39.8 µM [inhibitor, single point] | 
39 | COc1ccc2c(=O)ccoc2c1 | inconclusive: 25.1 µM [inhibitor, single point] | 
40 | C=CC(C1=CC(=O)C=CC1=O)c1ccccc1 (configuration not stated) | inconclusive: 12.6 µM [inhibitor, partial curve] | 
41 | COCCN(C(=O)Cc1cccs1)C(C(=O)NCc1ccc(OC)cc1)c1ccc(C(C)C)cc1 (configuration not stated) |  | inactive: -7.31%
42 | CCCCCCCC[n+]1c(C)n(-c2ccccc2)c2ccc(NC(C)=O)cc21 | inconclusive: 28.2 µM [inhibitor, single point] | 
43 | CC[n+]1c(/C=C/N(C)c2ccccc2)oc2ccc(Cl)cc21 |  | inactive: -3.52%
44 | CC(Sc1nnnn1-c1ccc(O)cc1)c1nc2ccccc2c(=O)[nH]1 (configuration not stated) |  | inactive: 0.0276%
45 | CCc1ccc(Nc2ncc3c(n2)CC(c2ccc(OC)cc2)CC3=O)cc1 (configuration not stated) | inconclusive: 31.6 µM [inhibitor, single point] | 
46 | O=C(O)CCc1ccc(-c2ccc(Br)cc2)n1Cc1ccco1 | inconclusive: 17.8 µM [inhibitor, partial curve] | 
47 | Cc1ccc(C2N=C(N)Nc3nc(=O)c4ccccc4n32)cc1 (configuration not stated) | inconclusive: 35.5 µM [inhibitor, single point] | 
48 | Cn1cc(C(=O)c2ccc(Cl)cc2Cl)cc1C(=O)N/N=C(\N)COc1ccc(Cl)cc1 | inconclusive: 28.2 µM [inhibitor, single point] | 

Row | Compound | Potency | activity change, negative = inhibition
49 | CCCn1c(-c2cccs2)nc2nc3ccccc3nc21 | inconclusive: 28.2 µM [inhibitor, partial curve] | 
50 | Cc1cc[n+]2c3c(cccc13)CCC2 | inconclusive: 25.1 µM [inhibitor, partial curve] | 
51 | COc1ccc(-c2ccc(SCC(=O)c3cccs3)nn2)cc1OC |  | inactive: 6.63%
52 | O=C(O)/C(=C\c1ccc(-c2ccc(F)cc2)o1)c1ccccc1 | inconclusive: 25.1 µM [inhibitor, single point] | 
53 | CN(C)CCCN(Cc1cc2cc3c(cc2[nH]c1=O)OCO3)C(=S)Nc1ccccc1 | inconclusive: 31.6 µM [inhibitor, partial curve] | 
54 | CCOc1cc(CNc2ccc(Br)cc2)cc(Br)c1OCC(=O)NC(C)(C)C |  | inactive: -7.25%
55 | C[C@@H]1C=C(C(=O)NC2CC2)O[C@H](OCc2ccc(CO)cc2)C1 |  | inactive: 9.17%
56 | CCOc1cccc(/C=C/C(=O)O)c1 | inconclusive: 31.6 µM [inhibitor, partial curve] | 
57 | Cc1ccc2cc(CCNS(=O)(=O)c3ccc(F)cc3)c(=O)[nH]c2c1C | inconclusive: 39.8 µM [inhibitor, single point] | 
58 | CC(NC(=O)COC(=O)c1ccccc1Nc1ccccc1)c1ccccc1 (configuration not stated) | inconclusive: 28.2 µM [inhibitor, single point] | 
59 | Cc1ccc2nc(N3CCN(S(=O)(=O)c4ccc5c(c4)OCCO5)CC3)c(C#N)cc2c1 | inconclusive: 22.4 µM [inhibitor, partial curve] | 
60 | CCOC(=O)C1CCN(CC(=O)Nc2c(C(=O)OC)[nH]c3ccccc23)CC1 | inconclusive: 39.8 µM [inhibitor, single point] | 
61 | CCc1c(C)sc(NC(=O)c2cc(-c3ccc(O)cc3)on2)c1C#N | inconclusive: 25.1 µM [inhibitor, single point] | 
62 | CC(=O)c1c(C)nc(-c2ccc(Cl)cc2)nc1N | inconclusive: 39.8 µM [inhibitor, single point] | 
63 | CCOC(=O)c1cc(-c2cc3ccccc3o2)nc2c1c(=O)[nH]c(=O)n2CCOC | inconclusive: 6.31 µM [inhibitor, partial curve] | 
64 | COc1ccc(OC)c(NC(=O)COC(=O)c2cc3c(s2)CCC3)c1 | inconclusive: 22.4 µM [inhibitor, partial curve] | 
65 | O=C(N/N=C/C1C(c2ccccc2)C1(Cl)Cl)c1cccc(Br)c1 (configuration not stated) |  | inactive: -16.5%
66 | COc1ccc2cnn(CCOc3cc(C)ccc3C(C)C)c(=O)c2c1OC |  | inactive: -22.1%
67 | C=COC(=O)c1sc2nc(C)cc(C)c2c1N | inconclusive: 11.2 µM [inhibitor, partial curve] | 
68 | C/C(=N\Nc1nc2ccccc2[nH]1)c1ccc2c(c1)OCO2 |  | inactive: 3.19%
69 | CSc1nnc(C)c(/C=C/Nc2ccc(C)cc2)n1 |  | inactive: -2.56%
70 | CCN(CC)CC#CC(OC)(c1ccccc1)c1ccccc1 | inconclusive: 35.5 µM [inhibitor, single point] | 
71 | CCN(CC)S(=O)(=O)c1ccc(-c2csc(C)n2)cc1 |  | inactive: 8.9%
72 | COc1ccc(C(=O)Nc2ncc(C)s2)cc1S(=O)(=O)N1CCCC1 |  | inactive: 0.374%
